The list shows a part of the results. Interaction screen of human proteins with wild-type SARS-CoV-2 proteins by split-DHFR complementation in yeast, 1 µg/mL methotrexate. Value = fitness of the pair (three or more lineages) minus that of the viral protein without a human partner, on a scale set by negative (0) and fused positive (1) controls, mean of up to three cultures; higher = more likely to interact. Active = false discovery rate below 0.05 (one-sided t-test) in at least one culture. Nearly all pairs are not hits, and differences among them are mostly noise (correlation between cultures about 0.3); most hits were seen in one culture only. Human sequences are the Swiss-Prot entries looked up by gene name; the clone may be another isoform. NSP2 values were corrected by the authors for a growth advantage. Listed are human proteins with a hit and a random twelfth of the others.
Columns and labels:
Assay in all cases: yeast fitness gain over the viral ORF with no human partner (scaled fitness); higher = more likely to interact
SARS-CoV-2 M = biological target: SARS-CoV-2 M
Method: (§1)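 Split mouse DHFR complementation in pooled diploid yeast: human ORFeome clones carry one fragment and viral ORFs the other; barcoded lineages compete in 1 µg/mL methotrexate and fitness is read by barcode sequencing in up to three cultures.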

SARS-CoV-2 N = biological target: SARS-CoV-2 N
Method: as §1

SARS-CoV-2 NSP10 = biological target: SARS-CoV-2 NSP10
Method: as §1

SARS-CoV-2 NSP12 = biological target: SARS-CoV-2 NSP12
Method: as §1

SARS-CoV-2 NSP13 = biological target: SARS-CoV-2 NSP13
Method: as §1

SARS-CoV-2 NSP2 = biological target: SARS-CoV-2 NSP2
Method: as §1

SARS-CoV-2 NSP5 = biological target: SARS-CoV-2 NSP5
Method: as §1

SARS-CoV-2 NSP6 = biological target: SARS-CoV-2 NSP6
Method: as §1

SARS-CoV-2 NSP7 = biological target: SARS-CoV-2 NSP7
Method: as §1

SARS-CoV-2 NSP8 = biological target: SARS-CoV-2 NSP8
Method: as §1

SARS-CoV-2 NSP9 = biological target: SARS-CoV-2 NSP9
Method: as §1

SARS-CoV-2 ORF10 = biological target: SARS-CoV-2 ORF10
Method: as §1

SARS-CoV-2 ORF3B = biological target: SARS-CoV-2 ORF3B
Method: as §1

SARS-CoV-2 ORF6 = biological target: SARS-CoV-2 ORF6
Method: as §1

SARS-CoV-2 ORF7A = biological target: SARS-CoV-2 ORF7A
Method: as §1

SARS-CoV-2 ORF7B = biological target: SARS-CoV-2 ORF7B
Method: as §1

SARS-CoV-2 ORF8 = biological target: SARS-CoV-2 ORF8
Method: as §1

SARS-CoV-2 ORF9B = biological target: SARS-CoV-2 ORF9B
Method: as §1

SARS-CoV-2 S = biological target: SARS-CoV-2 S
Method: as §1

SARS-CoV-2 NSP15 = biological target: SARS-CoV-2 NSP15
Method: as §1

SARS-CoV-2 NSP16 = biological target: SARS-CoV-2 NSP16
Method: as §1

SARS-CoV-2 NSP1 = biological target: SARS-CoV-2 NSP1
Method: as §1

SARS-CoV-2 ORF3A = biological target: SARS-CoV-2 ORF3A
Method: as §1

[1] = biological target: SARS-CoV-2 ORF9Bwu (the 73-codon ORF)
Method: as §1

SARS-CoV-2 NSP14 = biological target: SARS-CoV-2 NSP14
Method: as §1

SARS-CoV-2 NSP4 = biological target: SARS-CoV-2 NSP4
Method: as §1

Measured: yeast fitness gain

B1: LCN15, Q6UWW0 (protein)
chain: MMSFLLGAILTLLWAPTAQAEVLLQPDFNAEKFSGLWYVVSMASDCRVFLGKKDHLSMSTRAIRPTEEGGLHVHMEFPGADGCNQVDAEYLKVGSEGHFRVPALGYLDVRIVDTDYSSFAVLYIYKELEGALSTMVQLYSRTQDVSPQALKSFQDFYPTLGLPKDMMVMLPQSDACNPESKEAP
inactive: SARS-CoV-2 M -0.0131 | SARS-CoV-2 N 0.014 | SARS-CoV-2 NSP10 = -0.0277 | SARS-CoV-2 NSP12 = 0.105 | SARS-CoV-2 NSP13 = -0.0354 | SARS-CoV-2 NSP2 = -0.263 | SARS-CoV-2 NSP5 = 0.15 | SARS-CoV-2 NSP6 = -0.0201 | SARS-CoV-2 NSP7 = -0.0159 | SARS-CoV-2 NSP8 = -0.188 | SARS-CoV-2 NSP9 = -0.113 | SARS-CoV-2 ORF10 = 0.0128 | SARS-CoV-2 ORF3B 0.0372 | SARS-CoV-2 ORF6 = -0.0371 | SARS-CoV-2 ORF7A -0.0863 | SARS-CoV-2 ORF7B -0.0368 | SARS-CoV-2 ORF8 = -0.0842 | SARS-CoV-2 ORF9B 0.00938 | SARS-CoV-2 S -0.00869

B2: UCHL5, Q9Y5K5 (protein)
chain: MTGNAGEWCLMESDPGVFTELIKGFGCRGAQVEEIWSLEPENFEKLKPVHGLIFLFKWQPGEEPAGSVVQDSRLDTIFFAKQVINNACATQAIVSVLLNCTHQDVHLGETLSEFKEFSQSFDAAMKGLALSNSDVIRQVHNSFARQQMFEFDTKTSAKEEDAFHFVSYVPVNGRLYELDGLREGPIDLGACNQDDWISAVRPVIEKRIQKYSEGEIRFNLMAIVSDRKMIYEQKIAELQRQLAEEEPMDTDQGNSMLSAIQSEVAKNQMLIEEEVQKLKRYKIENIRRKHNYLPFIMELLKTLAEHQQLIPLVEKAKEKQNAKKAQETK
inactive: SARS-CoV-2 M 0.0231 | SARS-CoV-2 N -0.000354 | SARS-CoV-2 NSP10 = 0.0609 | SARS-CoV-2 NSP12 = -0.00166 | SARS-CoV-2 NSP13 = -0.000183 | SARS-CoV-2 NSP15 = -0.11 | SARS-CoV-2 NSP16 = 0.114 | SARS-CoV-2 NSP2 = -0.0324 | SARS-CoV-2 NSP5 = -0.036 | SARS-CoV-2 NSP6 = 0.0318 | SARS-CoV-2 NSP7 = -0.0265 | SARS-CoV-2 NSP8 = -0.00275 | SARS-CoV-2 NSP9 = 0.0743 | SARS-CoV-2 ORF10 = -0.188 | SARS-CoV-2 ORF3B -0.106 | SARS-CoV-2 ORF6 = 0.0036 | SARS-CoV-2 ORF7B -0.0291 | SARS-CoV-2 ORF8 = 0.0148 | SARS-CoV-2 ORF9B -0.0517 | SARS-CoV-2 S 0.0298

B3: MCFD2, Q8NI22 (protein)
chain: MTMRSLLRTPFLCGLLWAFCAPGARAEEPAASFSQPGSMGLDKNTVHDQEHIMEHLEGVINKPEAEMSPQELQLHYFKMHDYDGNNLLDGLELSTAITHVHKEEGSEQAPLMSEDELINIIDGVLRDDDKNNDGYIDYAEFAKSLQ
inactive: SARS-CoV-2 M -0.118 | SARS-CoV-2 N 0.117 | SARS-CoV-2 NSP1 = -0.00793 | SARS-CoV-2 NSP10 = 0.0416 | SARS-CoV-2 NSP12 = -0.0683 | SARS-CoV-2 NSP13 = 0.0196 | SARS-CoV-2 NSP15 = -0.21 | SARS-CoV-2 NSP16 = -0.095 | SARS-CoV-2 NSP2 = -0.12 | SARS-CoV-2 NSP5 = -0.0328 | SARS-CoV-2 NSP6 = -0.213 | SARS-CoV-2 ORF10 = 0.00465 | SARS-CoV-2 ORF3A 0.0585 | SARS-CoV-2 ORF3B 0.0066 | SARS-CoV-2 ORF6 = -0.0958 | SARS-CoV-2 ORF7A -0.0147 | SARS-CoV-2 ORF8 = 0.00679 | SARS-CoV-2 ORF9B -0.0149 | [1] -0.0282 | SARS-CoV-2 S 0.0158

B4: FRMD3, A2A2Y4 (protein)
chain: MFASCHCVPRGRRTMKMIHFRSSSVKSLSQEMRCTIRLLDDSEISCHIQRETKGQFLIDHICNYYSLLEKDYFGIRYVDPEKQRHWLEPNKSIFKQMKTHPPYTMCFRVKFYPHEPLKIKEELTRYLLYLQIKRDIFHGRLLCSFSDAAYLGACIVQAELGDYDPDEHPENYISEFEIFPKQSQKLERKIVEIHKNELRGQSPPVAEFNLLLKAHTLETYGVDPHPCKDSTGTTTFLGFTAAGFVVFQGNKRIHLIKWPDVCKLKFEGKTFYVIGTQKEKKAMLAFHTSTPAACKHLWKCGVENQAFYKYAKSSQIKTVSSSKIFFKGSRFRYSGKVAKEVVEASSKIQREPPEVHRANITQSRSSHSLNKQLIINMEPLQPLLPSPSEQEEELPLGEGVPLPKEENISAPLISSSPVKAAREYEDPPSEEEDKIKEEPLTISELVYNPSASLLPTPVDDDEIDMLFDCPSRLELEREDTDSFEDLEADENAFLIAEEEELKEARRALSWSYDILTGHIRVNPLVKSFSRLLVVGLGLLLFVFPLLLLLLESGIDLSFLCEIRQTPEFEQFHYEYYCPLKEWVAGKVHLILYMLGCS
inactive: SARS-CoV-2 M -0.0739 | SARS-CoV-2 NSP1 = -0.12 | SARS-CoV-2 NSP12 = 0.000278 | SARS-CoV-2 NSP13 = -0.0907 | SARS-CoV-2 NSP2 = -0.0201 | SARS-CoV-2 NSP8 = -0.0815 | SARS-CoV-2 ORF3B -0.0354 | SARS-CoV-2 ORF6 = 0.108 | SARS-CoV-2 ORF8 = 0.0988 | SARS-CoV-2 S -0.0916

B5: NUDT10, Q8NFP7 (protein)
chain: MKCKPNQTRTYDPEGFKKRAACLCFRSEREDEVLLVSSSRYPDRWIVPGGGMEPEEEPGGAAVREVYEEAGVKGKLGRLLGVFEQNQDPKHRTYVYVLTVTELLEDWEDSVSIGRKREWFKVEDAIKVLQCHKPVHAEYLEKLKLGGSPTNGNSMAPSSPDSDP
inactive: SARS-CoV-2 M -0.0191 | SARS-CoV-2 NSP1 = -0.0158 | SARS-CoV-2 NSP10 = 0.00385 | SARS-CoV-2 NSP12 = -0.0667 | SARS-CoV-2 NSP13 = -0.0243 | SARS-CoV-2 NSP14 = 0.114 | SARS-CoV-2 NSP15 = -0.141 | SARS-CoV-2 NSP16 = 0.0379 | SARS-CoV-2 NSP2 = 0.129 | SARS-CoV-2 NSP4 = -0.0606 | SARS-CoV-2 NSP5 = 0.0286 | SARS-CoV-2 NSP6 = 0.0319 | SARS-CoV-2 NSP7 = 0.0238 | SARS-CoV-2 NSP8 = -0.0569 | SARS-CoV-2 ORF10 = 0.0211 | SARS-CoV-2 ORF3A 0.102 | SARS-CoV-2 ORF3B -0.0378 | SARS-CoV-2 ORF6 = 0.0397 | SARS-CoV-2 ORF7A 0.123 | SARS-CoV-2 ORF7B 0.0142 | SARS-CoV-2 ORF8 = -0.0501 | SARS-CoV-2 ORF9B -0.0237 | [1] 0.00827 | SARS-CoV-2 S 0.0337
